Consider 44 compounds from publication PMC4336329 (PLoS ONE, 2015).

Molecules are shown by their SMILES. Out of some 310,000 compounds screened, about 14,000 (4.5%) showed an effect of 50% or more. The effect is printed as a negative number. The list shows a part of the results.
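Note: peak tail current of the secondary pulse compared with the same well before compound.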

The target in the experiment is human ether-à-go-go-related gene (hERG) potassium channel (human, UniProt Q12809). The experiment is described as follows: primary screen, population patch clamp on CHO cells stably expressing hERG.
Chain of human ether-à-go-go-related gene (hERG) potassium channel (Q12809 whole entry, looked up): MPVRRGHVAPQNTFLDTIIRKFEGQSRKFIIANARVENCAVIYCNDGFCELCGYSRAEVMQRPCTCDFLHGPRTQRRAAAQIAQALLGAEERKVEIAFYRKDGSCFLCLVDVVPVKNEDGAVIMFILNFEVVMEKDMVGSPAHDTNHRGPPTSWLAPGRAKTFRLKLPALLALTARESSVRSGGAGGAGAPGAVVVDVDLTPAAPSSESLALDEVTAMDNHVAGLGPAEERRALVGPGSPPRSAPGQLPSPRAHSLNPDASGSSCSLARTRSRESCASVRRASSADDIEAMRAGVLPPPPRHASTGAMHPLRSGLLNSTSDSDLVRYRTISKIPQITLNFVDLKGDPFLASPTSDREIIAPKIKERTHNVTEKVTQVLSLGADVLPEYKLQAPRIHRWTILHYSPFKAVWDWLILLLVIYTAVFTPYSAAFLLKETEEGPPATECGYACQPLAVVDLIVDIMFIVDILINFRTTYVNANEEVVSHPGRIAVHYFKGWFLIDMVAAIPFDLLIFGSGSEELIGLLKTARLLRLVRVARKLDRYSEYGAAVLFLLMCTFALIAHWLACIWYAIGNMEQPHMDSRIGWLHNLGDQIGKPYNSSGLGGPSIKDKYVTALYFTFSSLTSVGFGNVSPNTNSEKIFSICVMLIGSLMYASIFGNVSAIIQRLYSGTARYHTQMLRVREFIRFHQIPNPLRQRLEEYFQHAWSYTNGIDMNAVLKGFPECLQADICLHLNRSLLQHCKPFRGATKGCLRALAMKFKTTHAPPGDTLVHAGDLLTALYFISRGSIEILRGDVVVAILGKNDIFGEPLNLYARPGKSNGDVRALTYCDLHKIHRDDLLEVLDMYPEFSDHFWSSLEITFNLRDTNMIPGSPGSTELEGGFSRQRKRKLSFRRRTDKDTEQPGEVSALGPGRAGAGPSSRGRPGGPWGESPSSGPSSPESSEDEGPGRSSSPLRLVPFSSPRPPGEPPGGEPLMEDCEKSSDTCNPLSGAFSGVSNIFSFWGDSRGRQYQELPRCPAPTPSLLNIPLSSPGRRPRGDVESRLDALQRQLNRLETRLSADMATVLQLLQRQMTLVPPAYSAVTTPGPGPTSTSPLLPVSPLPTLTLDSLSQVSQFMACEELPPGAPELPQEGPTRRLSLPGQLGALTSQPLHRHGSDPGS
Take `Cc1cc(C(=O)N2CCOCC2)ccc1[N+](=O)[O-]`: the “hERG current change (%, negative = inhibition) at 10uM” value is given as 9.19%.
For the compound `COc1cccc(-c2csc(NC(=O)C3CC3)n2)c1`, the “hERG current change (%, negative = inhibition) at 10uM” value is given as 8.08%.
For `O=C(NNC(=O)C1CC1c1ccccc1)Nc1cccc(Cl)c1` (centres unmarked), the “hERG current change (%, negative = inhibition) at 10uM” value is given as 8.67%.
With `CCN1CCN(C(=O)c2ccccc2N(C)S(=O)(=O)c2ccc(C)cc2)CC1` the figure was 2.03%; with `CCc1cccc(OCCCCNCCCOC)c1.O=C(O)C(=O)O`, -19.4%; with `CCNC(=S)Nc1ccc(Cl)c(C(F)(F)F)c1`, -17.1%.
Turning to `Cc1ccc(S(=O)(=O)N(C)CCCC(=O)Nc2cccc3ccccc23)cc1`, the “hERG current change (%, negative = inhibition) at 10uM” value was -28.1%.
Turning to `Cc1c(C(=O)NCc2ccccn2)oc2ccc(Br)cc12`, the “hERG current change (%, negative = inhibition) at 10uM” value is given as -12%.
The value for `O=C(O)c1ccccc1OC(C(=O)Nc1cc(Cl)cc(Cl)c1)c1ccccc1` (centres unmarked) was 13.5%.
The value for `CC(C)NC(=O)CN(C(=O)CCC(=O)Nc1nccs1)c1ccc2c(c1)OCO2` was 7.86%.
With `COc1ccc(-n2nnnc2CNC(=O)c2ccc(S(=O)(=O)N3CCOCC3)cc2)cc1` the figure was -11.2%.
Turning to `Cc1ccc(/C=N/Nc2cn[nH]c(=O)n2)o1`, the “hERG current change (%, negative = inhibition) at 10uM” value is recorded as -4.58%.
With `COc1ccccc1C(=O)NCCC(=O)N(Cc1ccco1)Cc1cccs1` the figure was -21.3%; with `Cc1nc2cc(NC(=O)c3ccc(Cl)cc3)ccc2n1C`, -18%; with `CCC(C)(C)NC(=O)CN(C(=O)CCC(=O)Nc1ccccn1)c1ccc2c(c1)OCO2`, -9.65%.
With `COc1ccc(C2C3=C(CC(C)(C)CC3=O)Nc3nc(C)nn32)cc1OC` (centres unmarked) the figure was 9.84%.
With `CCOCCCn1c(SCc2nc3sc(C(=O)O)c(C)c3c(=O)[nH]2)nnc1-c1ccc(Cl)cc1` the figure was 25.3%; with `CC1Cc2cc(S(=O)(=O)NCCc3ccccc3)ccc2N1C(=O)C1CC1` (centres unmarked), 13.7%; with `Cc1ccccc1CN1C(=O)C2(OCCCO2)c2ccccc21`, -10.5%.
Regarding `CN(C)c1ccc(C(=O)Nc2ccc(O)c3c(=O)cc(-c4ccccc4Cl)oc23)cc1`, the “hERG current change (%, negative = inhibition) at 10uM” value is given as -7.97%.
As for `CC(C(=O)O)n1cc(Cl)cn1` (centres unmarked), the “hERG current change (%, negative = inhibition) at 10uM” value came to 8.82%.
With `NS(=O)(=O)c1ccc(NC(=O)/C=C/c2ccccc2Cl)cc1` the figure was 9.54%; with `N/C(=N\OC(=O)N1c2ccccc2Sc2ccccc21)c1ccccc1`, 23%; with `CCOc1ccc(NS(=O)(=O)c2ccc3c(c2)CCN3C(=O)CCC(=O)O)cc1`, 11.5%.
The value for `CSc1nc(C)c(CCOCc2ccccc2)c(=O)[nH]1` was 15.7%; that for `Cc1ccc(-c2ccccc2)n1-c1cccc(C(=O)O)c1` was 13.8%.
With `O=C(C1CC1)N1CCc2cc(S(=O)(=O)NCCCN3CCCCC3)ccc21`, the “hERG current change (%, negative = inhibition) at 10uM” value was 1.2%.
The value for `NC(=O)CSc1nnc2ccc(-c3ccc(F)cc3)nn12` was 8.58%; that for `S=C(NCCc1ccccc1)N/N=C/c1cccs1` was 19.9%; that for `Nn1c(SCc2nc3ccccc3[nH]2)nnc1-c1ccccc1` was 2.24%.
With `Cc1ccc(Cl)cc1NC(=S)N(CCCN1CCOCC1)Cc1ccco1` the figure was -28.5%; with `CCc1ccc(NC(=O)CSc2nc3ccccc3c(=O)n2CCCC(=O)NCCCN2CCOCC2)cc1`, -66.6%.
The value for `CC(C)Oc1ccc(CN=C(N)N=C(N)N)cc1Cl` was 7.53%.
On to `Nc1nc(SCC(=O)Nc2ccccc2)[nH]c(=O)c1-c1ccccc1`, for which the “hERG current change (%, negative = inhibition) at 10uM” value is reported as -0.842%.
The value for `COc1ccc(CCN2CN(S(=O)(=O)c3ccc(OC)cc3)c3nc4ccccc4nc32)cc1` was -16.1%; that for `C#Cc1cccc(NC(=O)CSc2nnc(-c3ccc(C(F)(F)F)cn3)o2)c1` was 12.7%.
For `CCOC(=O)Cc1c(C)nc2c(-c3ccccc3OC)c(C)nn2c1C`, the “hERG current change (%, negative = inhibition) at 10uM” value is -22.7%.
For the compound `CCN(C(=O)COC(=O)c1cccnc1SC)C1CCS(=O)(=O)C1` (centres unmarked), the “hERG current change (%, negative = inhibition) at 10uM” value is reported as 11.7%.
Turning to `O=C(/C=C/c1ccccc1[N+](=O)[O-])c1ccccc1Br`, the “hERG current change (%, negative = inhibition) at 10uM” value worked out at 7.57%.
The value for `O=C(NCCc1ccccc1)c1ccc(-n2cnnn2)cc1` was -4.78%; that for `COc1ccc(CN2C3CCCC2CC(NC(=O)Nc2cccc(C)c2)C3)cc1` (centres unmarked) was -75.3%; that for `CC1CN(C(=O)COC(=O)c2nn(-c3ccccc3)c(=O)c3ccccc23)CC(C)O1` (centres unmarked) was 9.9%.
With `COC(=O)Nc1ccc(S(=O)(=O)N2CCCC(C(=O)NC3CCS(=O)(=O)C3)C2)cc1` (centres unmarked) the figure was 8.07%.
With `C/C(=N\NC(=O)c1ccc(C)cc1)c1c(C)[nH]n(-c2ccccc2)c1=O` the figure was 14.2%.
